Reference: paper PMC7819943, “Rice protein-binding microarrays: a tool to detect cis-acting elements near promoter regions in rice”
The list shows a part of the results.

biological target: T1, OsWOX13 (Oryza sativa, UniProt Q5QMM3 1-267); experiment: protein-binding microarray (RPBM); PBS, 2% BSA, 51.3 ng/ul salmon testes DNA, 50 uM zinc acetate, 200 nM TF, 25 C, 1 h; high values mean tight binding; settings: protein: recombinant; tags: N-terminal polyhistidine and DsRed monomer fusion (pET32a); label: CyDye5-dUTP incorporated in the synthesized complementary strand; 3' TTTTT single-stranded linker to array surface; dsDNA, one strand shown
T1 sequence: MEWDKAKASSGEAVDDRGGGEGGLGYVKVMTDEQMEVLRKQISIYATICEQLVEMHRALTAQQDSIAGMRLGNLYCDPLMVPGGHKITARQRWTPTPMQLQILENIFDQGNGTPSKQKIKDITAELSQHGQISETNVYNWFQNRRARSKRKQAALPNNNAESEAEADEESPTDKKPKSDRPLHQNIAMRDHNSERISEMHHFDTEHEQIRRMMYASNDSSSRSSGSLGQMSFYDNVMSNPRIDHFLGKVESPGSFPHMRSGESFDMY
How it was run: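 In PBS with 2% BSA, salmon testes DNA and 50 µM zinc acetate, 200 nM protein was incubated on a custom Agilent array at 25 °C for 1 h and then washed off. The array had been made double-stranded by primer extension with Cy5-dUTP and blocked with 2% BSA. The proteins were transcription factors fused N-terminally to polyhistidine and DsRed, expressed in E. coli BL21-CodonPlus and purified on Ni–NTA. The binding signal is per-feature fluorescence intensity (arbitrary units) from an Axon 4000B scanner.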

Sequence	binding signal
CATCGATTATTTGATAAAAGAATTGTTGACTGAACTACCACGGAGTCACCTAGTGCAG	4420 fluorescence intensity (a.u.)
AGTTGAAGATCTAAATTGATATTCATGTACTCCCTCTGTTCGGAGTCACCTAGTGCAG	16800 fluorescence intensity (a.u.)
TTGATAAACAGAGGAGACGTGGTGTTGCGATTGTGGGGCTCGGAGTCACCTAGTGCAG	7540 fluorescence intensity (a.u.)
TGTATGTCGTTTGTCAAATTGAAACTAATGTTAAGAACGTCGGAGTCACCTAGTGCAG	3230 fluorescence intensity (a.u.)
ACATAAATTATCACATAAATCCAAACCCATGAAACACACTCGGAGTCACCTAGTGCAG	10600 fluorescence intensity (a.u.)
ACTAACTAAAATTTGGAATAAACATAATAAAATTAAAAGTCGGAGTCACCTAGTGCAG	6360 fluorescence intensity (a.u.)
CGGATTGATGGAGTATCTTCTTACTACCTTCTAAAACATACGGAGTCACCTAGTGCAG	29800 fluorescence intensity (a.u.)
GGGTTAATTGCATTTGGTCTTGTGGATATGCACGTGATTTCGGAGTCACCTAGTGCAG	36100 fluorescence intensity (a.u.)
AATAAATTACAAATTCCGCCTGTAAACATCGAGACAAATACGGAGTCACCTAGTGCAG	21800 fluorescence intensity (a.u.)
TATGATTAGCTATAAGTGCTACAGTAACCCACATATGCTACGGAGTCACCTAGTGCAG	45100 fluorescence intensity (a.u.)
TGAAATTGGAGGGGCTCCTTTGCTAAATGTGACAATGCGACGGAGTCACCTAGTGCAG	4100 fluorescence intensity (a.u.)
CTAATCAGCTAATCAATCTCATCCTCCTCTCTGCAGCAGCCGGAGTCACCTAGTGCAG	16000 fluorescence intensity (a.u.)
CCAAAATTAAGTCAATCGGGGAACGTTAAACCTAGCCAATCGGAGTCACCTAGTGCAG	12300 fluorescence intensity (a.u.)
AGCTAAATTTGTATCCAGAGGAGAGGAGGGGAAACCTCGGCGGAGTCACCTAGTGCAG	6130 fluorescence intensity (a.u.)
TTAATATAAAAGTAATTATTTAAATTGTAGAAACAATTTACGGAGTCACCTAGTGCAG	5710 fluorescence intensity (a.u.)
TTAGACCATTAAATTTAATAGAATAGCTTTGGCGTACATTCGGAGTCACCTAGTGCAG	6460 fluorescence intensity (a.u.)
ATATGATTATGTGATAATGTTTGAGAGTACAAACAAATGACGGAGTCACCTAGTGCAG	19000 fluorescence intensity (a.u.)
GGGATTGAGGATGACATGTGGGGCCCACGTGGCCCCACCACGGAGTCACCTAGTGCAG	3660 fluorescence intensity (a.u.)
CCCAATTAATTACAATGGGCCACACGCTCGTGGCCCAACTCGGAGTCACCTAGTGCAG	10900 fluorescence intensity (a.u.)
ATCAATAAATTTTAAATTTAGTTTGAAATATTTATTTGGCCGGAGTCACCTAGTGCAG	11000 fluorescence intensity (a.u.)
CATTCCAATTGATAGAGGGCTAACCACATTCCAAACATGTCGGAGTCACCTAGTGCAG	7110 fluorescence intensity (a.u.)
GATGAATTTATTAATTAGGTCTGTAAACAGTTTACATATGCGGAGTCACCTAGTGCAG	20300 fluorescence intensity (a.u.)
ATAATTTGATAAATAAACTAAAATTTTAATAATCTAAGAGCGGAGTCACCTAGTGCAG	23400 fluorescence intensity (a.u.)
TTGTAATTTGCCCAACCAAACACTACTTTCCACCAAATGTCGGAGTCACCTAGTGCAG	5040 fluorescence intensity (a.u.)
TCCACTAAACTGGTCCGTCACCCTCGCTGCCCGCTCTGAGCGGAGTCACCTAGTGCAG	3670 fluorescence intensity (a.u.)
TACACAAATTGCGTGTAAATTGCGAGACGAATCTTTTAAGCGGAGTCACCTAGTGCAG	17900 fluorescence intensity (a.u.)
TATATAGGTAATTTGTTGCAACGTTATGTGTGGTGGGGATCGGAGTCACCTAGTGCAG	5500 fluorescence intensity (a.u.)

Sequence	binding signal
GAGCATAGTATATCACACTATTAGCTCTAAATCATCTATACGGAGTCACCTAGTGCAG	17100 fluorescence intensity (a.u.)
AGGTGTGATTATTGTTCTGTTTGGCGCCATTATTATCTAACGGAGTCACCTAGTGCAG	16000 fluorescence intensity (a.u.)
ACAAATTGACTAGTAATTATTACGACAAGCGTGTAGGACACGGAGTCACCTAGTGCAG	31500 fluorescence intensity (a.u.)
TAGGTAACTATTATATAAATTAGCTATTAAGTTGACTATACGGAGTCACCTAGTGCAG	4340 fluorescence intensity (a.u.)
TCTTAATAATCTCTGCAATTTTCGTGTCAAGAAGCAGTACCGGAGTCACCTAGTGCAG	3530 fluorescence intensity (a.u.)
TAGTCAATTACCACTTCGTCTCTGCATATGTACGTAAAACCGGAGTCACCTAGTGCAG	16600 fluorescence intensity (a.u.)
GAGGTGATTTGCTCTGGTTTTCAGAGAAGGAGGAGGCATTCGGAGTCACCTAGTGCAG	23700 fluorescence intensity (a.u.)
GTGTCAGTGATGGAGCGAGTAATTAACTTCCTCAATGTAACGGAGTCACCTAGTGCAG	7740 fluorescence intensity (a.u.)
ACCTACTACATTGCTGAATTCAATCAGCCGCCGAATCTGCCGGAGTCACCTAGTGCAG	3240 fluorescence intensity (a.u.)
TCGTTGTAATTAAATCTTCGAAACAAGGCCACTCCTAGATCGGAGTCACCTAGTGCAG	6230 fluorescence intensity (a.u.)
TCCAGAAAGTAATTTAGTTTATTAAAATATTTCTGAAAGTCGGAGTCACCTAGTGCAG	3660 fluorescence intensity (a.u.)
TTTATTCTAATTTGAATTGTTCTGGTATGCCAGTACCCGGCGGAGTCACCTAGTGCAG	5670 fluorescence intensity (a.u.)
CTCAGATTGGTTCATGAAGCTATTGTTGTTGAAATTCTGTCGGAGTCACCTAGTGCAG	23000 fluorescence intensity (a.u.)
GATAAGTAAATTAATTGGAAGAAAGAAATCAGTGGGGAGGCGGAGTCACCTAGTGCAG	13500 fluorescence intensity (a.u.)
AATAAATGTACATATGTATAATTAAAATCATCCATACTCACGGAGTCACCTAGTGCAG	6540 fluorescence intensity (a.u.)
GCATAGTTTAATTGGTTAGATTTCTCATGGCACCAATGGTCGGAGTCACCTAGTGCAG	28500 fluorescence intensity (a.u.)
AATTAATTATCTAAACGTTGCTAAGGCGAGCAAGCTTATACGGAGTCACCTAGTGCAG	27700 fluorescence intensity (a.u.)
ACTTGAATAGTGTTAATGCCAATTATCCGAGAACGGAGGCCGGAGTCACCTAGTGCAG	11700 fluorescence intensity (a.u.)
ATTTGACGGACATGATATTCTTCATATGGCAAGAGCCGCACGGAGTCACCTAGTGCAG	6460 fluorescence intensity (a.u.)
GAAATGATTTAAGAATGATGATTTAGCATGTGTATGTTTACGGAGTCACCTAGTGCAG	26900 fluorescence intensity (a.u.)
GTTTAAAGAAATTGATGAAAGAAAAGCTTCATTGTTGGCTCGGAGTCACCTAGTGCAG	6180 fluorescence intensity (a.u.)
GTGCGTTGATTGCTACTGCGCTCCAACCACTGCGTTAACTCGGAGTCACCTAGTGCAG	34700 fluorescence intensity (a.u.)
CCTGGATTCAGTTGATAAATTATGACTGGCATGCCACTGTCGGAGTCACCTAGTGCAG	4380 fluorescence intensity (a.u.)
GGTTGATTGTGAAGTTAATTATTTAACATCTCAATTATAACGGAGTCACCTAGTGCAG	32800 fluorescence intensity (a.u.)
CGCCTAATCACATGGCATCATGCCCATGACAGCCGGGGAACGGAGTCACCTAGTGCAG	9840 fluorescence intensity (a.u.)
ACCCTAATTCCATCCACCGCTCGATCCAATCTACCCTCTCCGGAGTCACCTAGTGCAG	3910 fluorescence intensity (a.u.)
TAGCTAGATATGTAACTTATAAATTGATGGCCACACCTTACGGAGTCACCTAGTGCAG	4000 fluorescence intensity (a.u.)
